From PubChem BioAssay AID652104 (National Center for Advancing Translational Sciences (NCATS), 2013)
The campaign covered roughly 410,000 compounds. About 7,200 (1.8%) were called active. Inconclusive results, whose numbers are uncertain, are shown with a selection of clear calls. Calls come from the whole dose curve; as a rule, active = well fitted activation curve with a large enough effect; inconclusive = small, poorly fitted or top-dose-only effect, or another doubt; inactive = no such curve, though single readings can be large or run the other way. Potencies beside an inconclusive call are fits to weak or partial responses and may not hold up.

experiment: qHTS of TDP-43 Inhibitors; conditions: TDP-43 expressing yeast growth rescue, BacTiter-Glo, 24 h; growth rescue (activation): at 46.1 µM (top of the series) unless noted; note: nearly all actives have a fitted effect of over 50% in size; for growth rescue (activation): % of control where 0% means no effect
How it was run: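 Luminescence from BacTiter-Glo reports growth of TDP-43-expressing yeast after 24 hr at 30 deg C with compound. Cells were raffinose-pregrown to mid-log, then seeded in galactose medium at OD600=0.02.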
Potency is the fitted concentration of half-maximal effect; tags give direction and shape of the fitted curve.

Potency, active:
O=C(NCCc1csc2nc(-c3ccccc3F)nn12)c1ccccc1C(F)(F)F 17.8 µM, O=C(C1CCCN(S(=O)(=O)c2cccc3nonc23)C1)N1CCN(c2ccccc2Cl)CC1 (stereo not drawn) 35.5 µM, Cc1ccc(NC(=O)/C(C#N)=C/c2cc(C)n(-c3ccc(Br)cc3)c2C)cc1C 3.98 µM, CCOC(=O)C1CCN(C(=O)CCc2c(C)nc3cc(-c4ccccc4)nn3c2C)CC1 17.8 µM, CCn1c(COc2ccc(OC)cc2)nnc1SCC(=O)Nc1cc(OC)ccc1OC 17.8 µM, CC(C)(O)c1[nH]c2cc(C(F)(F)F)ccc2c1C(C)(C)O 35.5 µM, O=C(CC(=O)c1cc(Cl)ccc1O)c1ccccc1 10 µM

Potency, inconclusive:
NNC(=O)CCCCCCCCCCOCCCCO 8.91 µM [activator, partial curve], Cc1nn2c(C)c(C(=O)N3CCN(c4ccccc4F)CC3)cnc2c1-c1ccc(F)cc1 35.5 µM [activator, partial curve], CCOc1cc(C(=O)Nc2ccc3nc(Nc4cccc(Cl)c4)cc(C)c3c2)cc(OCC)c1OCC 7.08 µM [activator, full curve], CN(Cc1ccccc1)C(=O)c1[nH]cnc1C(=O)Nc1ccccc1 10 µM [activator, partial curve], CCc1ccc(OC(=O)Nc2ccccc2)cc1 12.6 µM [activator, single point], COc1cccc(CN(C(=O)c2ccc(C(C)(C)C)cc2)C2CCS(=O)(=O)C2)c1 (stereo not drawn) 8.91 µM [activator, partial curve, poor fit], O=C(/C=C/c1ccccc1O)c1ccco1 12.6 µM [activator, single point], CCN(CC)C(=S)SCC(=O)c1ccc(Br)cc1 11.2 µM [activator, partial curve], COc1ccc(C(=O)C2CCN(C(=O)Nc3ccccc3C)CC2)cc1 12.6 µM [activator, partial curve], O=C1c2ccccc2S(=O)(=O)N1CC1CC(c2ccccc2Cl)=NO1 (stereo not drawn) 12.6 µM [activator, single point], COc1ccc(NC(=O)c2c(-c3ccccc3Cl)noc2C)c(OC)c1 22.4 µM [activator, single point], CCOc1ccc(N2C(=O)C3C4C=CC([C@H]5CC45)[C@@H]3C2=O)cc1 (stereo partly drawn) 14.1 µM [activator, partial curve], CCOC(=O)c1[nH]cc(-c2ccccc2)c1N1CCOCC1 11.2 µM [activator, partial curve], CCn1c(SCC(=O)N2CCCc3ccccc32)nc2cccnc21 22.4 µM [activator, partial curve], Cc1nc2ccccc2cc1OCc1ccc(F)cc1 10 µM [activator, partial curve], c1ccc(-c2csc3ncnc(NCc4ccccn4)c23)cc1 35.5 µM [activator, single point], Cc1ccc(NC(=O)CCCN2C(=O)c3cccc4cccc(c34)C2=O)cc1 20 µM [activator, single point], Cc1cc2ccccc2n1CCNC(=O)c1ccc(F)cc1 12.6 µM [activator, partial curve], COc1ncccc1-c1nnn(-c2ccc(Cl)nc2)n1 7.08 µM [activator, partial curve], CCOC(=O)N1CCN(c2c(NCCc3ccccc3)c(=O)c2=O)CC1 39.8 µM [activator, partial curve, poor fit], COCCNC(=O)CCCN1C(=O)CCn2nc(-c3cccn3C)cc21 2.51 µM [activator, partial curve], COc1cc(Cl)ccc1OCc1cc(C(=O)N2CCCCCC2)no1 17.8 µM [activator, single point], CCOc1ccc(NS(=O)(=O)c2ccc3[nH]cc(C(=O)NCCOC)c(=O)c3c2)cc1 5.01 µM [activator, single point], COc1ccc(-n2cc(C(=O)N(C)c3cc(C)ccc3OC)c3ccccc3c2=O)cc1 22.4 µM [activator, single point], COCCNC(=S)NNC(=O)c1cc(-c2cccnc2)nc2ccccc12 3.98 µM [activator, full curve, poor fit], CC(C)Cc1csc(NC(=O)c2ccccc2Cl)c1C(=O)O 17.8 µM [activator, partial curve], O=C(Nc1nnc(-c2ccccc2)o1)c1ccc(Cl)cc1 3.16 µM [activator, partial curve, poor fit], CCOc1ccc(CCNC(=O)c2cccc(C#N)c2)cc1OCC 5.01 µM [activator, full curve, poor fit], CC(C)C(=O)COc1c2occc2cc2ccc(=O)oc12 12.6 µM [activator, partial curve, poor fit], COc1ccc(-c2cc(C(=O)N3CCCC(C(F)(F)F)C3)c3ccccc3n2)cc1 (stereo not drawn) 28.2 µM [activator, single point], CCCCN1C(=O)C(O)(c2c[nH]c3ccccc23)c2cc(Br)ccc21 (stereo not drawn) 12.6 µM [activator, single point], CCOc1ccc(CCNC(c2cccc(Cl)c2)c2nnc(-c3ccccc3)o2)cc1OCC (stereo not drawn) 12.6 µM [activator, partial curve, poor fit], Cc1ccc(C(=O)N2CCN=C2SCc2ccc([N+](=O)[O-])cc2)cc1C 15.8 µM [activator, single point], O=C(O)c1cc2cc(Cl)ccc2[nH]1 14.1 µM [activator, partial curve], O=C1N=C(N2CCCC2C(=O)O)S/C1=C\c1ccco1 (stereo not drawn) 35.5 µM [activator, partial curve], c1ccc(-c2nc(NCC3CCCO3)c3oc4ccccc4c3n2)cc1 (stereo not drawn) 17.8 µM [activator, single point], CCOc1ccc2nc(SCc3ccccc3C#N)sc2c1 22.4 µM [activator, single point], N#CC(C#N)=C1C=CC=CN1/C(=C\c1ccccc1Cl)C(=O)c1ccccc1 5.01 µM [activator, full curve], COc1cc(/C=N/N(C)c2ccccc2)ccc1O 7.08 µM [activator, partial curve], Cc1ccccc1Nc1c(-c2ccco2)nc2c(C)cccn12 35.5 µM [activator, partial curve], Cc1cc(Nc2ccc(Cl)cc2)nc(-c2ccccc2O)n1 1.58 µM [activator, full curve, poor fit], Cc1ccc(CS(=O)(=O)c2ncc(Cl)c(C(=O)Nc3nc4ccc(C)cc4s3)n2)cc1 1.58 µM [activator, full curve], CC(C)Oc1ccc(F)cc1-c1cc(C(=O)NCc2ccc(F)cc2)[nH]n1 20 µM [activator, partial curve, poor fit], COC1=CC(=O)OC(c2cccc(C(F)(F)F)c2)C1 (stereo not drawn) 35.5 µM [activator, single point], Cc1cc(C)cc(C(=O)Nc2cccnc2Cl)c1 35.5 µM [activator, single point], N#Cc1cc([N+](=O)[O-])c(-n2nnc3ccccc32)c([N+](=O)[O-])c1 39.8 µM [activator, partial curve, poor fit]

Growth rescue (activation), inactive:
COc1ccc(CNC(=O)c2sc(=O)n(Cc3ccc(-c4ccccc4)cc3)c2C)cc1OC 0%, COc1ccc(-c2oc3ncn4nc(COc5ccc(C)cc5)nc4c3c2-c2ccc(OC)cc2)cc1 7.86%, CCOc1ccc(NC(=O)NNC(=O)c2ccc(CC)s2)cc1 -4.99%, COc1ccc(NC(=O)Cn2c(=O)oc3cc(S(=O)(=O)N4CCCCC4C)ccc32)cc1 (stereo not drawn) 11.3%, CCN1C(=O)C2(c3ccccc31)c1c(oc3ccc(C)cc3c1=O)C(=O)N2CCCOC(C)C (stereo not drawn) 0%, Cc1ccc(/C=N/Nc2nc(C(C)(C)C)cs2)o1 12.9%, COc1cc(OC)c(NC(=O)c2cc(C(C)=O)n3ccccc23)cc1Cl 20.8%, COc1ccc(OCC(=O)N(Cc2cccc(OC)c2)C2CCS(=O)(=O)C2)cc1 (stereo not drawn) 0%, O=C(Nc1ccc(Br)cc1Br)Nc1cccc2[nH]c([C@@H]3O[C@H](CO)[C@@H](O)[C@H](O)[C@H]3O)nc12 24.6%, Cc1ccc(NC(=O)Cn2c(=O)n(Cc3ccco3)c(=O)c3sc4ccccc4c32)cc1C -7.94%, COC(=O)[C@H](C)NC(=O)Nc1cccc(C(F)(F)F)c1 -10.9%, Cc1ccc2cc(C3CC(c4ccco4)=NN3C(=O)CCCC(=O)O)c(Cl)nc2c1 (stereo not drawn) -5.61%, CCC(=O)c1ccc(OC(=O)c2cccs2)cc1 0%, COc1ccc([N+](=O)[O-])cc1NCC(=O)c1ccc(C)cc1 -14.4%

Growth rescue (activation), inconclusive:
O=C(CCN1C(=O)C2C3C=CC(C4CC34)C2C1=O)Oc1cccc2cccnc12 (stereo not drawn) -94.4% [activator]
